# Data taken from paper PMC9911399, “Two distinct binding modes provide the RNA-binding protein RbFox with extraordinary sequence specificity”.
# Positions count from the first letter of the chain named. The list shows a part of the results.
# T1: RBFOX1 RRM RbFoxmut (Fox-RRM*) (Homo sapiens, UniProt Q9NWB1 109-208, R118D;E147R;N151S;E152T)
# T1 sequence: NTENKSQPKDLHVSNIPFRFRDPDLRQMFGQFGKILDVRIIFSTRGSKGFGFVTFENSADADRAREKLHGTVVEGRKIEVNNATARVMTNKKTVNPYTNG
# B1: CAAAGUA (DNA:RNA)
# RNA: GGGAGACCGGAAUUCAGAUUGUCCCAAAGUAUUAAAUCCCGUCGUAGCCACCA
# DNA 1: CAATCTGAATTCCGGTCTCCC
# DNA 2: TGGTGGCTACGACGGGATT
# B2: GUGGCCG (DNA:RNA)
# RNA: GGGAGACCGGAAUUCAGAUUGUCCGUGGCCGUUAAAUCCCGUCGUAGCCACCA
# DNA 1: CAATCTGAATTCCGGTCTCCC
# DNA 2: TGGTGGCTACGACGGGATT
# B3: GGAGCAG (DNA:RNA)
# RNA: B2 RNA with U26G, G27A, C30A
# DNA 1: CAATCTGAATTCCGGTCTCCC
# DNA 2: TGGTGGCTACGACGGGATT
# B4: CGAAUAA (DNA:RNA)
# RNA: B1 RNA with A26G, G29U, U30A
# DNA 1: CAATCTGAATTCCGGTCTCCC
# DNA 2: TGGTGGCTACGACGGGATT
# B5: GUGCUUG (DNA:RNA)
# RNA: B2 RNA with G28C, C29U, C30U
# DNA 1: CAATCTGAATTCCGGTCTCCC
# DNA 2: TGGTGGCTACGACGGGATT
# B6: AUGUGGG (DNA:RNA)
# RNA: B2 RNA with G25A, G28U, C29G, C30G
# DNA 1: CAATCTGAATTCCGGTCTCCC
# DNA 2: TGGTGGCTACGACGGGATT
# B7: GUAGGUG (DNA:RNA)
# RNA: B2 RNA with G27A, C29G, C30U
# DNA 1: CAATCTGAATTCCGGTCTCCC
# DNA 2: TGGTGGCTACGACGGGATT
# B8: UUUGAGU (DNA:RNA)
# RNA: B2 RNA with G25U, G27U, C29A, C30G, G31U
# DNA 1: CAATCTGAATTCCGGTCTCCC
# DNA 2: TGGTGGCTACGACGGGATT
# B9: CGGAUCU (DNA:RNA)
# RNA: B1 RNA with A26G, A27G, G29U, U30C, A31U
# DNA 1: CAATCTGAATTCCGGTCTCCC
# DNA 2: TGGTGGCTACGACGGGATT
# B10: UAGCUCU (DNA:RNA)
# RNA: B2 RNA with G25U, U26A, G28C, C29U, G31U
# DNA 1: CAATCTGAATTCCGGTCTCCC
# DNA 2: TGGTGGCTACGACGGGATT
# B11: CCAUUCG (DNA:RNA)
# RNA: B1 RNA with A26C, A28U, G29U, U30C, A31G
# DNA 1: CAATCTGAATTCCGGTCTCCC
# DNA 2: TGGTGGCTACGACGGGATT
# B12: ACUGCGU (DNA:RNA)
# RNA: B2 RNA with G25A, U26C, G27U, C30G, G31U
# DNA 1: CAATCTGAATTCCGGTCTCCC
# DNA 2: TGGTGGCTACGACGGGATT
# B13: UGAUAUG (DNA:RNA)
# RNA: B1 RNA with C25U, A26G, A28U, G29A, A31G
# DNA 1: CAATCTGAATTCCGGTCTCCC
# DNA 2: TGGTGGCTACGACGGGATT
# B14: CGUUACC (DNA:RNA)
# RNA: B1 RNA with A26G, A27U, A28U, G29A, U30C, A31C
# DNA 1: CAATCTGAATTCCGGTCTCCC
# DNA 2: TGGTGGCTACGACGGGATT
# B15: GGCCGCA (DNA:RNA)
# RNA: B1 RNA with C25G, A26G, A27C, A28C, U30C
# DNA 1: CAATCTGAATTCCGGTCTCCC
# DNA 2: TGGTGGCTACGACGGGATT
# B16: UUACUUC (DNA:RNA)
# RNA: B1 RNA with C25U, A26U, A28C, G29U, A31C
# DNA 1: CAATCTGAATTCCGGTCTCCC
# DNA 2: TGGTGGCTACGACGGGATT
# B17: UGUGAGC (DNA:RNA)
# RNA: B2 RNA with G25U, U26G, G27U, C29A, C30G, G31C
# DNA 1: CAATCTGAATTCCGGTCTCCC
# DNA 2: TGGTGGCTACGACGGGATT
# B18: AGACGGU (DNA:RNA)
# RNA: B1 RNA with C25A, A26G, A28C, U30G, A31U
# DNA 1: CAATCTGAATTCCGGTCTCCC
# DNA 2: TGGTGGCTACGACGGGATT
# B19: GGUUACC (DNA:RNA)
# RNA: B2 RNA with U26G, G27U, G28U, C29A, G31C
# DNA 1: CAATCTGAATTCCGGTCTCCC
# DNA 2: TGGTGGCTACGACGGGATT
# B20: ACGCCGU (DNA:RNA)
# RNA: B2 RNA with G25A, U26C, G28C, C30G, G31U
# DNA 1: CAATCTGAATTCCGGTCTCCC
# DNA 2: TGGTGGCTACGACGGGATT
# B21: AUCGUUA (DNA:RNA)
# RNA: B1 RNA with C25A, A26U, A27C, A28G, G29U
# DNA 1: CAATCTGAATTCCGGTCTCCC
# DNA 2: TGGTGGCTACGACGGGATT
# B22: UGAAGCA (DNA:RNA)
# RNA: B1 RNA with C25U, A26G, U30C
# DNA 1: CAATCTGAATTCCGGTCTCCC
# DNA 2: TGGTGGCTACGACGGGATT
# B23: AAGCGAU (DNA:RNA)
# RNA: B1 RNA with C25A, A27G, A28C, U30A, A31U
# DNA 1: CAATCTGAATTCCGGTCTCCC
# DNA 2: TGGTGGCTACGACGGGATT
# B24: ACUCUCG (DNA:RNA)
# RNA: B2 RNA with G25A, U26C, G27U, G28C, C29U
# DNA 1: CAATCTGAATTCCGGTCTCCC
# DNA 2: TGGTGGCTACGACGGGATT
# B25: AGGUAUC (DNA:RNA)
# RNA: B1 RNA with C25A, A26G, A27G, A28U, G29A, A31C
# DNA 1: CAATCTGAATTCCGGTCTCCC
# DNA 2: TGGTGGCTACGACGGGATT
# B26: UUCUCGA (DNA:RNA)
# RNA: B2 RNA with G25U, G27C, G28U, C30G, G31A
# DNA 1: CAATCTGAATTCCGGTCTCCC
# DNA 2: TGGTGGCTACGACGGGATT
# B27: GUAGCAC (DNA:RNA)
# RNA: B2 RNA with G27A, C30A, G31C
# DNA 1: CAATCTGAATTCCGGTCTCCC
# DNA 2: TGGTGGCTACGACGGGATT
# B28: UGUGAGG (DNA:RNA)
# RNA: B2 RNA with G25U, U26G, G27U, C29A, C30G
# DNA 1: CAATCTGAATTCCGGTCTCCC
# DNA 2: TGGTGGCTACGACGGGATT
# B29: UCCAAGC (DNA:RNA)
# RNA: B1 RNA with C25U, A26C, A27C, G29A, U30G, A31C
# DNA 1: CAATCTGAATTCCGGTCTCCC
# DNA 2: TGGTGGCTACGACGGGATT
# B30: GGAGUGG (DNA:RNA)
# RNA: B2 RNA with U26G, G27A, C29U, C30G
# DNA 1: CAATCTGAATTCCGGTCTCCC
# DNA 2: TGGTGGCTACGACGGGATT
# B31: CAAGGGU (DNA:RNA)
# RNA: B1 RNA with A28G, U30G, A31U
# DNA 1: CAATCTGAATTCCGGTCTCCC
# DNA 2: TGGTGGCTACGACGGGATT
# Target: T1, RBFOX1 RRM RbFoxmut (Fox-RRM*)
# Test: EMSA; HiTS-Eq, 1 nM pool, 10 min; buffer printed only for the single-RNA assays: 10 mM Tris pH 7.5, 150 mM NaCl, 3.4 mM EDTA, 0.001% NP-40, 30 C
# Details: tags: His6 N-terminal (pET28a); label: 5' 32P
# Summary of the method: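 Purified RbFox RRM, wild type or mutant, was incubated for 10 min in 50 µL with 1 nM of a 5′-radiolabelled RNA pool carrying 7 randomized nucleotides, whose flanks were annealed to DNA oligonucleotides, over a series of increasing protein concentrations. Unbound RNA was resolved on 8% native PAGE, cut out, reverse-transcribed, barcoded by PCR and sequenced on an Illumina HiSeq 2500. Relative association constants were derived from changes in read counts for each RNA species versus the control reaction and normalised to the cognate motif.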
row,Binder,binding signal
1,B1,0.109 KA relative to UGCAUGU
2,B2,0.202 KA relative to UGCAUGU
3,B3,0.0829 KA relative to UGCAUGU
4,B4,0.0787 KA relative to UGCAUGU
5,B5,0.511 KA relative to UGCAUGU
6,B6,0.134 KA relative to UGCAUGU
7,B7,0.157 KA relative to UGCAUGU
8,B8,0.121 KA relative to UGCAUGU
9,B9,0.099 KA relative to UGCAUGU
10,B10,0.0833 KA relative to UGCAUGU
11,B11,0.104 KA relative to UGCAUGU
12,B12,0.122 KA relative to UGCAUGU
13,B13,0.437 KA relative to UGCAUGU
14,B14,0.0897 KA relative to UGCAUGU
15,B15,0.107 KA relative to UGCAUGU
16,B16,0.0594 KA relative to UGCAUGU

row,Binder,binding signal
1,B17,0.128 KA relative to UGCAUGU
2,B18,0.093 KA relative to UGCAUGU
3,B19,0.107 KA relative to UGCAUGU
4,B20,0.109 KA relative to UGCAUGU
5,B21,0.18 KA relative to UGCAUGU
6,B22,0.107 KA relative to UGCAUGU
7,B23,0.0622 KA relative to UGCAUGU
8,B24,0.0861 KA relative to UGCAUGU
9,B25,0.191 KA relative to UGCAUGU
10,B26,0.0669 KA relative to UGCAUGU
11,B27,0.0949 KA relative to UGCAUGU
12,B28,0.111 KA relative to UGCAUGU
13,B29,0.0628 KA relative to UGCAUGU
14,B30,0.112 KA relative to UGCAUGU
15,B31,0.0862 KA relative to UGCAUGU
